PMC4336329 (PLoS ONE, 2015)
Screen size: about 310,000 compounds; about 2,200 (0.71%) showed an effect of 50% or more. Effects have a minus sign here. The list shows a part of the results.

target: human ether-à-go-go-related gene (hERG) potassium channel (human, UniProt Q12809); experiment: primary screen, population patch clamp on CHO cells stably expressing hERG
Sequence (Q12809 whole entry, looked up): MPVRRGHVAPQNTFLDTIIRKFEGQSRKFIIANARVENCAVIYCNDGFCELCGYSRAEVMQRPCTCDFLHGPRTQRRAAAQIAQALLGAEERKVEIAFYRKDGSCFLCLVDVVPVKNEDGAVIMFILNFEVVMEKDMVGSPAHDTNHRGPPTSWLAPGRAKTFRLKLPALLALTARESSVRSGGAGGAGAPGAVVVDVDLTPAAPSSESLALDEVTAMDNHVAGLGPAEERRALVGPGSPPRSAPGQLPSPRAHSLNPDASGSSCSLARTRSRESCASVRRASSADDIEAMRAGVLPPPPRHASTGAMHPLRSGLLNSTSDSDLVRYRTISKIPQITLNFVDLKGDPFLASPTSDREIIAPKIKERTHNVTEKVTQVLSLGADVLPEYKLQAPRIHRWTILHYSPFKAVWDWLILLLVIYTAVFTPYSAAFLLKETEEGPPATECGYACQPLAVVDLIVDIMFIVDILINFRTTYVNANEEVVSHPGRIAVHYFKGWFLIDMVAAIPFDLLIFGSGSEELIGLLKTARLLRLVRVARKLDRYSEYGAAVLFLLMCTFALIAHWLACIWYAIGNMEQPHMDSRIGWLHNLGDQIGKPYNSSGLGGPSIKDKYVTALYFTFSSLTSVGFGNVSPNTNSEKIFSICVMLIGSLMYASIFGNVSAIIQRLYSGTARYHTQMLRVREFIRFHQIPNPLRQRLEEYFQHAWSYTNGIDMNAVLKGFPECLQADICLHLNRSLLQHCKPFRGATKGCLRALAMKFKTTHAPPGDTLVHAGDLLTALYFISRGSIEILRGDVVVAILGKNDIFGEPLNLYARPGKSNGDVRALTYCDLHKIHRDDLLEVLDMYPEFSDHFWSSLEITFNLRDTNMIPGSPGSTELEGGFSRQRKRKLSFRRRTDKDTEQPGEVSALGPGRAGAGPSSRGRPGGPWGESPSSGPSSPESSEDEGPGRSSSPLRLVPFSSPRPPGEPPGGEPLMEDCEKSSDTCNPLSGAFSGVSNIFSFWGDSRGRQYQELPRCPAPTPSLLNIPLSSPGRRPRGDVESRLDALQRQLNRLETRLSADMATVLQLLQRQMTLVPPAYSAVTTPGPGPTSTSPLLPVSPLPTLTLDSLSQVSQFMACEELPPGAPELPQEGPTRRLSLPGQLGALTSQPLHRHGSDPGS

| SMILES | hERG current change (%, negative = inhibition) at 1uM |
| --- | --- |
| CN(CC(=O)NC(=O)NC1CCCCC1)CC(=O)Nc1ccc(Cl)cc1 | 3.5% |
| CC(C)n1nc(C(=O)Nc2cccc(S(=O)(=O)NCc3ccco3)c2)c2ccccc2c1=O | 11.4% |
| CC1C(=O)Nc2ccc(S(=O)(=O)Nc3ccccc3Br)cc2NC1=O (stereo not drawn) | 4.97% |
| O=C(CCNC(=O)N1CC(=O)Nc2ccccc21)NCCc1cccc(F)c1 | 11.9% |
| COC(=O)c1ccc(NC(=S)N2CCC(C(N)=O)CC2)cc1 | 14.4% |
| O=C(Nc1cccc([N+](=O)[O-])c1)Nc1cnccn1 | 12% |
| Cc1cc(C(=O)CSc2nc(N)cc(N)n2)c(C)n1-c1cccc(F)c1 | 6.26% |
| CCCC#Cc1ccc2c(c1)COc1c3ccccc3nn1-2 | 16.3% |
| COc1ccc(NC(=O)CN2C(=O)NC3(CCCC3)C2=O)c(OC)c1 | 10.2% |
| COc1ccc(Cl)cc1NC(=O)c1nnn(CC(=O)Nc2ccc(C)c(C)c2)c1N | 14.9% |
| COc1ccc(OC)c(CC(NC(C)=O)C(=O)NC2CCN(c3nnnn3-c3ccccc3)CC2)c1 (stereo not drawn) | 2.82% |
| CCC(CC)NC(=O)c1cc(OC)c(OC)cc1[N+](=O)[O-] | 14.8% |
| O=C(Nc1nc2c(s1)CCCC2)c1cc(-c2ccncc2)nc2ccccc12 | 2.28% |
| Cc1cccc2cc(COC(=O)c3ccco3)c(=O)[nH]c12 | 5.33% |
| CC1(C)CC(=O)c2sc(NS(=O)(=O)c3ccc(Br)cc3)nc2C1 | 13.3% |
| Cc1ccnc(SCC(=O)Nc2cc(C)on2)n1 | 17.3% |
| CCOc1cccc(C(=O)N2CCCN(C)CC2)c1 | 1.7% |
| CCOC(=O)C1=C(C)NC(C)=C(C(=O)OCC)C1c1ccccn1 | 15.6% |
| O=C(Nc1ccc(Nc2ccccc2)cc1)c1ccco1 | 3.39% |
| COc1cc2[nH]c3c(c2cc1OC)CCN1CCCC[C@@H]31 | 15% |
| CCCCCC(=O)NC(=S)Nc1cccc(-c2nc3ncccc3o2)c1 | -0.146% |
| Cc1nc2cc(NS(=O)(=O)c3ccccc3)ccc2n1C | 13.2% |

| SMILES | hERG current change (%, negative = inhibition) at 1uM |
| --- | --- |
| COC(=O)c1c(N(S(C)(=O)=O)S(C)(=O)=O)sc2c1CCN(c1ncc(C(F)(F)F)cc1Cl)C2 | 8.21% |
| COc1ccc([C@H]2CC(=O)C=C(c3cccc4c3Oc3ccccc3S4)C2)cc1OC | 1.6% |
| COC(=O)CCC(=O)OC1(C)C(=O)C=C2C=C(C3CC3)N(CCc3ccccn3)C=C2C1=O (stereo not drawn) | 7.19% |
| C=C(C)c1ccc(C(C)(C)NC(=O)N(Cc2ccccc2)Cc2ccco2)cc1 | -6.17% |
| O=C(NCc1ccccc1)C(c1ccco1)N(C(=O)c1ccccn1)c1ccccc1 (stereo not drawn) | 8.3% |
| COC(=O)CC1C(=O)NCCN1C(=O)c1cc(OC)c(OC)cc1OC (stereo not drawn) | 16.3% |
| CCC(C(=O)Nc1nc(C)c(C(=O)OC)s1)c1ccccc1 (stereo not drawn) | 1.45% |
| O=C(NCc1ccccc1)c1onc(CSc2ccc(Cl)cc2)c1C(=O)NCc1ccccc1 | 10.1% |
| COc1ccc(CNCC(=O)N2CCC3(CC2)OCCO3)cc1.O=C(O)C(=O)O | 1.35% |
| Cc1cc(C)c(NC(=O)CCCC(=O)O)c(Cl)c1 | 7.12% |
| C#CCOC(=O)Nc1cccn(Cc2c(Cl)cccc2Cl)c1=O | 4.96% |
| CCOc1ccccc1N(CC(=O)NCCSCc1ccco1)S(=O)(=O)c1ccccc1 | 9.02% |
| COC(=O)c1ccc(CO/N=C2\CCCc3nonc32)cc1 | -3.26% |
| CCc1nnc(NC(=O)CCC(=O)N2CCCC2)s1 | 13.4% |
| Cc1ccc(CNC(=O)CN(C)C2=NS(=O)(=O)c3ccccc32)cc1 | 0.964% |
| c1cc(-c2nsc(-c3ccncc3)n2)ccn1 | 4.82% |
| Cc1ccc(N2C(=O)CCC2(C(N)=O)c2ccccc2)cc1 (stereo not drawn) | 0.771% |
| CCCCn1nc(C(=O)Nc2nc3c(s2)CCCC3)c2ccccc2c1=O | 0.207% |
| Cc1cnc(C(=O)Oc2c(C)ccc(C)c2C)cn1 | 6.11% |
| COc1cc(/C=C/C(=O)OCC(=O)Nc2c(C)n(C)n(-c3ccccc3)c2=O)ccc1O | 13.5% |
| Cc1nn(-c2ccc(F)cc2)c(C)c1NS(=O)(=O)c1ccc2ccccc2c1 | 19.2% |
| O=C(COC(=O)CC(c1ccccc1)c1ccccc1)Nc1ccc(F)c(F)c1 | 1.93% |

| SMILES | hERG current change (%, negative = inhibition) at 1uM |
| --- | --- |
| CC(=O)Nc1ccc(S(=O)(=O)N2CCN=C2SCc2ccc(F)cc2)cc1 | 3.33% |
| CSC1=NCCN1S(=O)(=O)c1ccc2ccccc2c1 | -17.2% |
| O=C(CCSCCC(=O)Nc1c(F)c(F)c(F)c(F)c1F)Nc1c(F)c(F)c(F)c(F)c1F | 5.63% |
| C/C(CCc1ccc2c(c1)OCO2)=N\NC(=O)c1ccccc1 | 3.54% |
| CC1CN2c3ccc([N+](=O)[O-])cc3CC3(C(=O)N(C)C(=O)N(C)C3=O)C2C(C)O1 (stereo not drawn) | 14.9% |
| COc1ccc(C(=O)O/N=C(\N)Cc2ccc([N+](=O)[O-])cc2)c(OC)c1 | -9.08% |
| Br.COc1ccc(/C=N/Nc2nc(C(=O)O)cs2)cc1 | 17.1% |
| C/C(=N\NC(=O)C(N)=O)c1cccc(C(F)(F)F)c1 | 26.3% |
| COc1ccc(CN2CCN(CC=C(C)C)C(CCO)C2)cc1Cn1cncn1 (stereo not drawn) | 4.07% |
| COc1ccc(Cn2ccnc2SCC(=O)Nc2ccccc2OC)cc1 | 4.8% |
| Cc1ccc(OC(=S)Nc2ccc(O)cc2)cc1 | -5.64% |
| CCCCN1C=CC(=C2C(=O)c3ccccc3C2=O)C=C1 | 19.5% |
| CCOc1ccc2nc(N(Cc3ccccc3)C(=O)CCNC(C)=O)sc2c1 | -3.35% |
| O=C(CSc1nc(-c2ccco2)cc(C(F)(F)F)n1)NCCN1CCOCC1 | 6.25% |
| Nc1nonc1-n1nnc(C(=O)N/N=C/c2ccccc2Cl)c1CSc1ccccc1 | 13.5% |
| Cc1cc(C)c(COc2ccc(/C=N/n3c(C)n[nH]c3=S)cc2)c(C)c1 | 0.763% |
| O=C(O)c1ccc(OCCCCCCOC2CCCCO2)cc1 (stereo not drawn) | 12.1% |
| CC(C)N(C(=O)c1ccc(-c2ccccc2F)cc1)C(C)C | 15.1% |
| Cc1cc2c(cc1C)N(CC(=O)N1CCCC1)C(=O)CC(c1ccccc1)=N2 | 1.81% |
| Cc1nn(-c2ccccc2)c2sc(-c3nnc(SCC(=O)O)o3)cc12 | 16% |
| O=C(c1ccccc1)N1CCN=C1SCc1ccc([N+](=O)[O-])cc1 | -20.5% |
| Clc1ccc(CN2CCC(c3nc4ccc(Cl)cc4[nH]3)CC2)cc1 | -78.7% |

| SMILES | hERG current change (%, negative = inhibition) at 1uM |
| --- | --- |
| COc1cc(C(=O)N2CCC(C(=O)Nc3cccc(C(C)=O)c3)CC2)cc(OC)c1OC | 0.0653% |
| OCCC1CN(Cc2cnc(N3CCOCC3)s2)CCN1C1CCCC1 (stereo not drawn) | 16.8% |
| O=C(O)C1=C[C@H](c2ccc(C(F)(F)F)cc2)C[C@H](OCCCCO)O1 | 15.4% |
| COc1ccc(NC(=O)C2CCCN(c3ncnc4onc(-c5ccc(F)cc5)c34)C2)cc1 (stereo not drawn) | 9.27% |
| O=c1[nH][nH]c(-c2ccccc2O)c1C(C[N+](=O)[O-])c1ccc(Br)cc1 (stereo not drawn) | 18.7% |
| CC1CN=C(N(C(=O)Nc2ccccc2)C(C)c2ccccc2)S1 (stereo not drawn) | 13.8% |
| COc1ccc(C(=O)COC(=O)CCNS(=O)(=O)c2ccccc2)cc1Br | 17.1% |
| CCCc1ccc(OCC(=O)O)cc1 | 5.55% |
| O=C(OCCC1Oc2cccnc2NC1=O)c1ccc(Cl)cc1 (stereo not drawn) | 10.4% |
| O=c1[nH]c2cc([N+](=O)[O-])c([N+](=O)[O-])cc2[nH]c1=O | 1.24% |
| CC(=O)c1ccc(S(=O)(=O)N2CCN(S(=O)(=O)c3ccccc3C(F)(F)F)CC2)cc1 | 14.5% |
| O=C(c1cccnc1)N1N=C2CCCCCC2C1(O)C(F)(F)F (stereo not drawn) | 8.53% |
| CSc1ccccc1NC(=O)CN(C)C(=O)C1CCN(C(=O)Nc2ccccc2)CC1 | 8.26% |
| Cc1ccc(OCc2nnc(SCc3cc(=O)[nH]c4ccccc34)o2)cc1 | 8.27% |
| Cc1ccc(C(=O)N/C(=C\c2ccccc2)C(=O)NCCN2CCOCC2)cc1 | -38.7% |
| O=C(Nc1nc2ccc(Oc3ccccc3)cc2s1)c1cc([N+](=O)[O-])ccc1N1CCOCC1 | 5.63% |
| Cl.O=C(c1ccco1)N1CCN(C(c2ccccc2Cl)c2nnnn2Cc2ccco2)CC1 (stereo not drawn) | -27% |
| COc1ccc(N/C=C(\C(C)=O)c2ccc(OC)c(OC)c2)cc1OC | 13.4% |
| CCOC(=O)c1cc(CC)sc1NC(=O)COC(=O)c1cc[n+]([O-])cc1 | 9.84% |
| O=C1CC(c2cccc(Cl)c2)c2cc3c(cc2N1)CCC3 (stereo not drawn) | 18.3% |
| COc1ccc(-c2nc(C#N)c(N3CCCCC3)o2)cc1 | 9.1% |
